# Reference: PubChem BioAssay (NCI)
# Some compounds were tested as several samples or in several runs, with calls that do not always agree.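 Testing used 96-well plates and a 48-hour single-concentration exposure. Example: -40 means 40% of the starting cells died.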 For part of its entries the source gives two or more results. This list holds those alone. Rule for the calls: active = growth percent below 10; inactive = the rest. The source may hold further records. This drug was run again and again over the years, at the concentration stated with the values; one value stands for one run. Brackets with × give the number of equal values in this list.
# System: MDA-MB-468 breast
# Experiment: NCI-60 one-dose screen, 48 h (100 = growth as untreated, 0 = no growth, -100 = all killed)
# Conditions: 0.25 µM
smiles,measurement,setting,value
COc1cccc2c1C(=O)c1c(O)c3c(c(O)c1C2=O)C[C@@](O)(C(=O)CO)C[C@@H]3OC1CC(N)C(O)C(C)O1 (stereo partly specified),growth,runs of 2007,"active: -8.64, -6.58, 8.75, -11.7, 8.92, -0.561, -0.305, -7.65, 1.72, 3.22, -14.3, 0.51, -4.6, 3.08% and inactive: 10.4, 42.7, 29.5, 32.8, 35.6, 12, 33.2, 13.4, 27.2%"
same,growth,runs of 2008,"active: -10.7, 4.32, -6.92, 7.94, -3.52, -4.01, -60.4, -53.4, -27.8, -4.6, 5.61, -1.88, -43.2, -10.6, -0.617, -70.1, -2.91, -23.8, -24.6, -28.2, -45.4, -56.4, 3.46, -3.68, -13.5, -33.9, -12.2, -8.16, -8.13, -25, -15, -28.4% and inactive: 31.5, 25.1, 21.2, 24.1, 16.4, 16.2, 16, 30.4, 15.4, 85.8, 12.2, 24.9, 13.9, 52, 35.5%"
same,growth,runs of 2009,"active: 6.31, 3.99, -2.32, -9.46, -25.6, -20.3, -12, -15.8, -1.66, -7.58, -10.6, -7.48, -13.4, -7.99, -9.58, -34.7, -37.9, 9.42, 5.85, -9.75, 9.49, -34, -9.49, -25.5 (2×), 9.53, -46.7, -26.8, -9.44, -34.1, -17.9, 3.62, 5.8, -35.1, -25, -34.3, -20.8, -18.1, -33, -21.6, -23.3, 0.823, -21.7, 4.13, -3.04, -23.4, -0.202, -1.39, -18.3, -1.92, -4.65, 4.5, 3.89, -7.27% and inactive: 22.6, 16.2, 13.4, 13.8, 20.3, 10.3, 25.9, 24.3, 16, 29.5, 19.2, 21.8, 11.5%"
same,growth,runs of 2010,"active: -13.4 (2×), 0.0925, 0.0628, -17.9, 6.91, 8.73, 4.83, -15.8, -25.2, -20.5, -11.7, -29.4, -26.2, -27.7, 4.84, -32.9, -8.96, -1.84, -15.2, -10.1, -20.9, -1.34, -12.3, -0.289, 3.63, -29.8, -8.91, -6.01, -8.43, -19.7, -12.6, -11.5, -14.1, -23.4, -10.9, -6.15, -24.9, -3.32, -15.3, 4.11, -0.278, 3.01, -3.75, -4.15, -1.52% and inactive: 13, 12.5, 12.7, 22, 20.4, 12.9%"
same,growth,runs of 2011,"active: 1.51, -4, 1.52, -12.2, -1.77, 7.11, 6.17, 4.11, -14.5, -6.49, 7.19, -6.67, -12.1, 3.4, -6.89, -10.2 (2×), 1.85 (2×), -6.95, 3.91, -9.85, 3.37, -31.9, -10.8, 2.11, -15.3, 3.5, 0.986, 5.54, 5.44, -2.02, -4.77, 0.346, 5.59, 8.56, -3.09, -2.06, 9.27, 6.93, -5.85, -7.97% and inactive: 22.7, 13.5, 17.4, 12, 18.3, 17.3, 19.6, 25.7, 12.9 (2×), 13.8, 16.2, 10.4, 11.9 (2×), 25.3, 22.5, 28.8, 18.2%"
same,growth,runs of 2012,"active: -14.3, -25, -31.9, -29.5, -12.4, -12.1, -11.8, -8.24, 4.3, -35.1, -45.2, -29.3, -27.1, -41.8, -26, -35.2, -28.4, -28.7 (2×), -26.8, -36.1, -9.65, -8.37, 5.67, -5.9, 1.07, 2.96, 9.97, 6.1, 4.73, 4.25, -14.5, -8.43, -38.1, -23.4, -5.34, -1.98, -5.97, 9.45, -0.894% and inactive: 19, 11.3, 20.3, 16.5 (2×), 22.5, 20.6, 33.4, 30.4, 14.6, 31.5, 21.9, 71.1, 46.5, 43.8, 47.9, 77.5, 25.8, 25.6, 27.9, 34.6, 29.5, 24.8, 42.7, 42.9, 29.9, 32.5, 41.3, 27.3, 30.9, 34.9, 39.1%"
same,growth,runs of 2013,"inactive: 36.1, 42.2, 30.4, 27.9, 24.8 (2×), 29, 22.6, 31.2, 21.9, 21.5, 14.3, 28.8, 12.2, 25.4, 26.2 (2×), 26.7, 20, 17.6, 17.5, 21.6 (2×), 25, 15.7, 29.7, 27.5, 22.5, 24.1, 33.3, 32.6, 26.8, 18.6, 20.8, 24.3, 19.1, 24.9 (2×), 13.4, 18.9, 20.2, 24.2, 27.6, 28.6, 29.8, 18.7 (2×), 28.4, 31.6, 46, 38.3, 29.2, 33.2, 29.9, 24.6, 18.1, 20.1, 13.8, 17.1, 16.5% and active: 8.86, 9.37, 1.82, 4.14, 2.36, 7.77, 1.4, 0.0889, -2.27, 3.51, 9.04, -6.04, -2.05, 6.8, -2.04%"
same,growth,runs of 2014,"active: 7.32, 8.53, 3.96, -17.9, -2.4, -8.18, -0.679, 0.425, 4.64, 5.47, 5.57, 4.51, 5.02, 2.87, 9.11, 9.43, 1.59, -5.04, -15.5, 2.34, 5.76, 4.89, -2.01, 5.1, 1.32, -6.26, 7.62, -8.19, 4.34, -5.47, -6.06, 1.39, -12.4, -5.51, -4.44, -7.18, 6.76, -0.586, -5.48, -2.07, 6.8, 8.2, -6.69, -1.98, -13, 8.32, -1.15, 6.92, 3.23, -8.62, 9.81, -1.83, -1.19, 8.76% and inactive: 11.7, 17.3, 22.6, 17.7, 11.1, 24.3, 24.9, 31.1 (2×), 30.6, 39.5, 30.3, 16.3, 21 (2×), 11.3, 15.4, 26.6 (2×), 31.7, 37.6, 18.1, 13.5, 14.6, 10.6, 17.9, 26.1, 16, 15.1, 13.4%"
same,growth,runs of 2015,"inactive: 28, 13.5 (2×), 23.2, 29.6, 21.1, 35.2, 28.8, 20.8, 25.9, 38.4, 30.6, 31.4, 51.5, 69, 57.5, 32.2, 27.4, 11.6, 31.3 (2×), 16.5, 32.7, 57.8, 33.1, 27 (2×), 32.4, 28.5, 32.8, 11.3, 13.9, 11, 22, 14.6, 11.4, 14.4, 21.4 (2×), 22.7, 16.7, 14.3, 38.2, 17.2, 19.8, 10.8, 11.8, 46.3, 40.9, 29.1, 26.2, 16.8, 20.4, 13.6, 12.6, 22.1, 12.4, 10.2% and active: 8.4, 1.37, -7.86, 5.56, -2.07, 3.13, 4.77, 3.15, -0.319, 4.67, 9.48, 3.98, 2.69, -3.65, 6.18, 0.678, 6.63, -5.54, 5.47, 0.447, 7.96, 9.92, 4.26, 9.02, 3.75, 2.91, -7.91, 9.53, 4.37, -7.13%"
same,growth,runs of 2016,"active: 5.28, 6.62, -7.22, -6.34, 9.1, 3.04, 4.21, 2.74, -1.06, 4.09, -8.56, -11.4, 9.79, 8.3, 2.12, 3.16, -5.4, 0.173, -1.53, -14.3, -18.5, -8.01, -2.95, 4.04, -0.343, -7.41, 7.99, 8.44, 7.12, 9.65% and inactive: 12.4, 18.7 (3×), 21.6, 31.7, 36.5, 28.2 (2×), 20.1, 11.6, 12.9, 16.4, 24.7, 12.5, 25.1, 25.4, 19.8, 33, 38.6 (2×), 20.2, 18.3, 17.3, 18.4, 25.2, 33.1, 28.4, 35.4, 42.4, 50.6, 34.8, 35.2, 40.7, 46.5, 39, 37.9, 37, 38.4, 41.6, 46.7, 38.7, 48.9, 53.8, 40.2, 30.8, 33.2, 32.8, 22.2, 32.4, 47.3, 29.9, 39.5, 10.6, 18.9, 32.9%"
same,growth,runs of 2017,"inactive: 24.3, 21.1 (2×), 10.9, 14.3, 16.5, 12.7, 18.7, 14.4 (2×), 19.1, 19.3 (2×), 20.1, 16.4, 26.9, 12.2, 27.2, 25.7, 26.6, 26 (2×), 24.9, 17.4, 21, 27.9, 27.3, 21.5, 13.8, 14.6, 14.5, 18.8, 15, 18.9, 27.1, 12.3 (2×), 17.1, 25.5, 39.5, 37.8, 13.4, 26.8, 20.2, 23.7% and active: 8.29, 2.01, 8.55, -3.32, 1.26 (2×), 9.87, 5.15, 6.25, 6.27, 7.22 (2×), 1.59, 8.35, -0.844, 4.03, 6.63, 6.8, 4.5, -3.26, 3.92, 5.36, 7.01, 6.74, 9.76, 5.31, 7.99, 6.03, 8.21, 9.39, 7.07, 9.67, 6.15, -0.592, 4.55, 8.42, 4.38%"
same,growth,runs of 2018,"inactive: 17.2 (2×), 22.7, 17.8 (2×), 19.9, 26.1 (2×), 13.5, 27.7, 23.2, 24.6, 47.4, 38.2, 40.9, 30.7, 42.6, 32.6, 32.3, 18.9, 17.7, 22.6, 11.3, 16.5, 19.7, 18.2 (2×), 13.9, 13, 17.5, 15.7, 17.4, 22.5, 24.1, 12.1% and active: 8.1, -6.02, -13.9, 5.35, 8.54, -0.471, -10.3, -13.7, -19.1, -4.09, -12.8, -14.1, -7.87, 3.97, -8.13, 7.41, -3.37, 4.55, -5.53%"
same,growth,runs of 2019,"active: -14.1, -2.48, -0.245, -3.63, 6.4, 2.91, 4.72, 3.3, -4.79, 4.32, 8.44, -0.378, 5.52, 9.93, 5.93, -2.02, 1.34, -18.2, 2.41, -3.93, -6.66, -10.1, 9.08, 6.62, 7.09, -2.33, -4.14, 4.95, -1.49, -4.44, 2.57, 0.173, -2.94, -0.745, 1.85, 7.08, 8.22, 9.29, 1.01, -4.12, -2.98, -7.53, -9.71, -20.1, -17.1% and inactive: 33.6, 20.2, 19.2, 17.6, 12.1%"
same,growth,runs of 2020,"active: -14.7, -19, -3.59, -19.2, -15.3, 1.11, -22.6, -12.2, -2.27, 9.21, -1.52, -17.1, -5.23, -2.02, -1.26, -6.55, -9.59, -21.4, -26.7, -27.9, -4.2, -1.48, 0.501% and inactive: 22%, 17.4%"
same,growth,runs of 2021,"active: -11.5, -3.25, -12.6, -4.94, 7.45, 6.47, 3.99, 7.65, 9.4, -13.1, -6.88 (2×), 0.37, -2.98, 9.74, 7.57, -5.57, -16.7, -5.52, -14.7, -24.2, -0.612, 1.8, -9.58, -9.75, -1.89, -2.18% and inactive: 25.5, 15.1 (2×), 18.1, 17.6, 24.5, 19.3, 10.3 (2×), 14.1, 12.3, 13.6, 15.7, 10.6, 13.1, 15, 14.9, 16.2, 12.7, 18.5, 21.8, 21.2, 23.7, 21.3, 15.9, 22.6, 27, 22.1, 15.4, 10.1, 24.1%"
same,growth,runs of 2022,"active: -16.7, -11.7, 7.71, -2.49, -43.9, -14.9, -30, -21.3, -18.1, -5.89, -11.8, -20.8, -2.98, -19.8, -2.92, -10.9, -14.8, -23.5, -24 (2×), -22.5, -15.5, -25.4% and inactive: 61.5, 41.8, 36.1, 89.6%"
